In the supplement of paper PMC4967469:
IC50 is the fitted dose that halves viability relative to control wells, and lower means more sensitive; where the fit passes the top or lowest dose, that dose stands as a limit. AUC is the area under the same curve over the 256-fold range up to the top dose, as a fraction; values near 1 show little effect. For some assays here: Any top dose called inferred comes from the curve model; the source does not state it. For some assays here: An entry number marks a drug with two screens in the source, which often give different values.

Key:
Assay in all cases: Viability of human cancer cell lines after 72 h of drug (GDSC screen)
LFM-A13 = compound: C/C(O)=C(\C#N)C(=O)Nc1cc(Br)ccc1Br [LFM-A13]; conditions: top dose 16 µM; top dose inferred
Description: (§1)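 Human cancer cell lines in 384-well plates, medium with 10% serum, drug for 72 h over a 256-fold dose range (nine 2-fold or five 4-fold steps up to the top dose). Adherent lines were fixed and stained with the nucleic acid dye Syto60, suspension lines read with resazurin; signal relative to control wells, capped at 0 and 100%. One two-parameter sigmoid per drug and line, fitted in a mixed model over all curves with the slope shared within a line.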

TW-37 = compound: CC(C)c1ccccc1Cc1cc(C(=O)Nc2ccc(S(=O)(=O)c3ccccc3C(C)(C)C)cc2)c(O)c(O)c1O [TW-37]; conditions: top dose 5 µM
Description: as §1

T0901317 = compound: O=S(=O)(c1ccccc1)N(CC(F)(F)F)c1ccc(C(O)(C(F)(F)F)C(F)(F)F)cc1 [T0901317]; conditions: top dose 10.24 µM; top dose inferred
Description: as §1

Bicalutamide = compound: CC(O)(CS(=O)(=O)c1ccc(F)cc1)C(=O)Nc1ccc(C#N)c(C(F)(F)F)c1 [Bicalutamide]; conditions: top dose inferred
Description: as §1

KIN001-270 = compound: Cc1ccc(Nc2cc(-c3cccc(N4C(=O)c5ccccc5C4=O)c3)ncn2)cc1NS(C)(=O)=O [KIN001-270]; conditions: top dose 20 µM; top dose inferred
Description: as §1

AUY922 = compound: CCNC(=O)c1noc(-c2cc(C(C)C)c(O)cc2O)c1-c1ccc(CN2CCOCC2)cc1 [AUY922]; conditions: top dose 0.256 µM; top dose inferred
Description: as §1

MP470 = compound: S=C(NCc1ccc2c(c1)OCO2)N1CCN(c2ncnc3c2oc2ccccc23)CC1 [MP470]; conditions: top dose 20 µM; top dose inferred
Description: as §1

Gemcitabine = compound: Nc1ccn([C@@H]2O[C@H](CO)[C@@H](O)C2(F)F)c(=O)n1 [Gemcitabine]; conditions: top dose 1.024 µM
Description: as §1

GNF-2 = compound: NC(=O)c1cccc(-c2cc(Nc3ccc(OC(F)(F)F)cc3)ncn2)c1 [GNF-2]; conditions: top dose 1.28 µM; top dose inferred
Description: as §1

Nilotinib = compound: Cc1cn(-c2cc(NC(=O)c3ccc(C)c(Nc4nccc(-c5cccnc5)n4)c3)cc(C(F)(F)F)c2)cn1 [Nilotinib]; conditions: top dose 2 µM
Description: as §1

[1] = top dose 1.024 µM, screen: GDSC drug entry 150
[2] = top dose 10 µM, screen: GDSC drug entry 1502

| Cell Line | AUC (LFM-A13) | IC50 (LFM-A13) | AUC (TW-37) | IC50 (TW-37) | AUC (T0901317) | IC50 (T0901317) | AUC (Bicalutamide; [1]) | IC50 (Bicalutamide; [1]) | AUC (Bicalutamide; [2]) | IC50 (Bicalutamide; [2]) | AUC (KIN001-270) | IC50 (KIN001-270) | AUC (AUY922) | IC50 (AUY922) | AUC (MP470) | IC50 (MP470) | AUC (Gemcitabine) | IC50 (Gemcitabine) | AUC (GNF-2) | IC50 (GNF-2) | AUC (Nilotinib) | IC50 (Nilotinib) |
| --- | --- | --- | --- | --- | --- | --- | --- | --- | --- | --- | --- | --- | --- | --- | --- | --- | --- | --- | --- | --- | --- | --- |
| U-87-MG (glioma, adherent) | 0.972 | > 16000 nM | 0.398 | 156 nM | 0.979 | > 10200 nM | 0.984 | > 1020 nM | 0.982 | > 10000 nM | 0.966 | > 20000 nM | 0.663 | 49.5 nM | 0.981 | > 20000 nM | 0.708 | 277 nM | 0.985 | > 1280 nM | 0.984 | > 2000 nM |
| U-698-M (B-cell leukaemia, suspension) | 0.959 | > 16000 nM | 0.532 | 382 nM | 0.984 | > 10200 nM | 0.981 | > 1020 nM | 0.969 | > 10000 nM | 0.891 | > 20000 nM | 0.589 | 28.1 nM | 0.894 | > 20000 nM | 0.495 | 62 nM | 0.982 | > 1280 nM | 0.966 | > 2000 nM |
| UACC-257 (melanoma, adherent) | 0.971 | > 16000 nM | 0.6 | 629 nM | 0.979 | > 10200 nM | 0.982 | > 1020 nM | 0.933 | > 10000 nM | 0.976 | > 20000 nM | 0.698 | 66.6 nM | 0.859 | > 20000 nM | 0.63 | 160 nM | 0.965 | > 1280 nM | 0.977 | > 2000 nM |
| VA-ES-BJ (soft tissue, adherent) | 0.917 | > 16000 nM | 0.362 | 127 nM | 0.974 | > 10200 nM | 0.983 | > 1020 nM | 0.956 | > 10000 nM | 0.976 | > 20000 nM | 0.555 | 22.8 nM | 0.931 | > 20000 nM | 0.197 | 7.55 nM | 0.981 | > 1280 nM | 0.961 | > 2000 nM |
| WSU-DLCL2 (B-cell lymphoma, suspension) | 0.989 | > 16000 nM | 0.522 | 355 nM | 0.931 | > 10200 nM | 0.992 | > 1020 nM | 0.983 | > 10000 nM | 0.982 | > 20000 nM | 0.993 | > 256 nM | 0.858 | 12200 nM | 0.925 | > 1020 nM | 0.993 | > 1280 nM | 0.992 | > 2000 nM |
| WSU-NHL (lymphoid neoplasm, suspension) | 0.978 | > 16000 nM | 0.375 | 148 nM | 0.982 | > 10200 nM | 0.99 | > 1020 nM | 0.99 | > 10000 nM | 0.923 | > 20000 nM | 0.559 | 22.7 nM | 0.941 | > 20000 nM | 0.442 | 45.4 nM | 0.99 | > 1280 nM | 0.955 | > 2000 nM |
| YT (lymphoid neoplasm, suspension) | 0.983 | > 16000 nM | 0.576 | 488 nM | 0.971 | > 10200 nM | 0.991 | > 1020 nM | 0.987 | > 10000 nM | 0.894 | 17600 nM | 0.462 | 12.8 nM | 0.932 | > 20000 nM | 0.892 | 884 nM | 0.958 | > 1280 nM | 0.911 | > 2000 nM |
| no-11 (glioma, adherent) | 0.975 | > 16000 nM | 0.732 | 1730 nM | 0.976 | > 10200 nM | 0.977 | > 1020 nM | 0.981 | > 10000 nM | 0.967 | > 20000 nM | 0.637 | 42.3 nM | 0.954 | > 20000 nM | 0.728 | 342 nM | 0.983 | > 1280 nM | 0.962 | > 2000 nM |
